The values below come from ChEMBL document CHEMBL4888484, “Replenishing the malaria drug discovery pipeline: Screening and hit evaluation of the MMV Hit Generation Library 1 (HGL1) against asexual blood stage Plasmodium falciparum ,using a nano luciferase reporter read-out” (2022).

The campaign covered roughly 150,000 compounds. About 540 (0.36%) showed an effect of 50% or more. This is one part of the list.

The assay has as its system Plasmodium falciparum. Nature of the assay: Primary screen in NF54 nanoGlo assay, in single point, at 2uM, 72h; a lower Z score goes with more inhibition. Format: functional, Erythrocyte. The conditions noted are these: timepoint 72 hour.
For orientation: % Inhibition means the relative decrease from the control value, in per cent. For `O=C1COc2ccc(C(=O)Cn3nc4cnccn4c3=O)cc2N1`, the “% Inhibition” value is on record as 10% and the Z score is reported as -1.19.
On the same counts, the results for `COc1ccccc1N1CCN(CC2(CC(=O)O)CC2)CC1` are -11% and 1.33.
Taken in the same sequence, the figures for `CCn1c(C(=O)N2CCN(c3ccccn3)CC2)cc2c(-c3cccs3)nn(-c3ccccc3)c21` were -7% and 1.14.
For `CCc1noc(CCNC(=O)c2ccc(-c3c(C)ncnc3OC)cc2)n1`, the “% Inhibition” value is recorded as -17% and the Z score came to 2.11.
Turning to `COCCC1(c2noc(C3CCOCC3)n2)CCN(Cc2c(C)nn(C)c2C)CC1`, the “% Inhibition” value was -16% and the Z score was 2.12.
Turning to `CCOC(=O)NC(=O)COC(=O)C[C@H](C)c1ccccc1`, the “% Inhibition” value was -5% and the Z score is listed as 0.8.
For `Cc1ccc(-c2cc(NC(=O)c3ccccc3)c(=O)n(CC(=O)Nc3cc(C)ccc3C)n2)cc1`, the “% Inhibition” value is given as -7% and the Z score is 1.07.
Regarding `CCOC(=O)C(=O)NCc1ccc(F)cc1`, the “% Inhibition” value was -7% and the Z score stood at 0.78.
On the same counts, the results for `CC(C)C(=O)N[C@@](C)(Cn1cccn1)C(N)=O` are 1% and -0.08.
Taken in the same sequence, the figures for `Cn1nccc1C=Cc1ncc(Br)s1` were -8% and 1.04.
Taken in the same sequence, the figures for `COc1cc(C(=O)N2CCNC(=O)C[C@H]2c2ccccc2)ccc1C` were -16% and 2.03.
As to `Cc1ccc(C)c(NC(=O)NCc2cc3n(n2)CCN(S(C)(=O)=O)C3)c1`, the “% Inhibition” value is -10% and the Z score is 1.36.
As to `Cn1c(=O)ccn(CC(=O)NCC2(c3ccc(Cl)cc3)CCCC2)c1=O`, the “% Inhibition” value is -13% and the Z score is given as 1.78.
Consider `CCOC(=O)CN1C(=O)N(c2ccc(OC)cc2)c2ncccc2S1(=O)=O`, for which the “% Inhibition” value is recorded as -22% and the Z score came out at 2.2.
On the same counts, the results for `COc1ccc2cc1OCC(=O)N[C@@H](C)C(=O)N(C)CCCCN(C(=O)c1ccc3cccc(F)c3n1)CCCNC(=O)CC2` are -2% and 0.3.
Taken in the same sequence, the figures for `CCN1C[C@H](CN(C)CC(=O)NC2CCCC2)Oc2ccccc21` were -13% and 1.09.
Regarding `Cc1ccc(C)c(CC(=O)N2CCC([C@H](C)N3CCN(C)CC3)CC2)c1`, the “% Inhibition” value is -5% and the Z score is given as 0.61.
Turning to `CC1CS(=O)(=O)CCN1CC(=O)N1C(C)CCCC1C` (centres undefined), the “% Inhibition” value is listed as -5% and the Z score worked out at 0.77.
With `CCO[C@@H](CC)C(=O)Nc1ncccc1Br`, the “% Inhibition” value is reported as -13% and the Z score is 1.5.
On the same counts, the results for `O=C(c1cscc1-c1ccccc1)N1CCCO[C@@H](CF)C1` are -6% and 0.76.
For `COc1ccc([C@@H]2CCCN2C(=O)Nc2nncs2)cc1OC`, the “% Inhibition” value is given as 1% and the Z score is -0.13.
Turning to `O=C(N[C@@H]1CCCNC1)c1cc(-c2ccco2)nc2c(Cl)cccc12`, the “% Inhibition” value came to 2% and the Z score is reported as -0.24.
In the case of `Cc1cccc(NS(=O)(=O)c2ccc3c(c2)CC(C)(C)OC3)c1C`, the “% Inhibition” value is listed as -7% and the Z score is 0.78.
On the same counts, the results for `CCC=C(C)C(=O)NCCc1ccc(OC)cc1` are 10% and -1.39.
Taken in the same sequence, the figures for `CC1(c2ccccc2)CCC(N2CCN3C(=O)C(=O)NCC3C2)C1` (centres undefined) were -12% and 2.29.
On to `COc1c2ccc(C(=O)N3CCC(COc4cc(C)ncn4)CC3)cc2nn1C`, for which the “% Inhibition” value is listed as -13% and the Z score amounted to 2.29.
On the same counts, the results for `CCOc1cc2cc(c1)C(=O)N(C)CC(=O)N[C@@H]1CN(C(=O)c3cccnc3)CC[C@@H]1OCc1cccc(c1)O2` are -11% and 2.21.
With `CC(=O)c1c[nH]c(C(=O)Nc2ccc3c(c2)NC(=O)[C@H](C)O3)c1`, the “% Inhibition” value was -14% and the Z score is recorded as 2.03.
With `CCCS(=O)(=O)N1CC(n2cc(C(=O)NCc3ccccc3)nn2)C1`, the “% Inhibition” value is on record as -3% and the Z score is on record as 0.59.
As for `Cc1nc(C2(NC(=O)N3CCS(=O)(=O)CC3)CCCCCC2)no1`, the “% Inhibition” value is listed as 12% and the Z score was -2.19.
On the same counts, the results for `Cc1cc(C(=O)N2CCC(F)(F)[C@@H](COCC3CC3)C2)[nH]n1` are -1% and 0.22.
In the case of `Cc1ccc(Cn2cccc2C(=O)C(=O)Nc2cccc3ccccc23)cc1`, the “% Inhibition” value was -4% and the Z score came to 0.34.
Consider `Cn1cccc1CN[C@H](c1ccccc1)C1(CO)CCC1`, for which the “% Inhibition” value stood at 8% and the Z score is -1.38.
Take `COCCN1C[C@]2(CCCN(c3ccnc4ccc(C)cc34)C2)CCC1=O`: the “% Inhibition” value is on record as -3% and the Z score came out at 0.55.
On the same counts, the results for `CN(C1CCCCC1)S(=O)(=O)N1CCC[C@H](C(C)(C)C)CC1` are -12% and 1.6.
Take `O=S(=O)(c1ccccc1)c1cnc2c(Br)c(-c3ccccc3)nn2c1-c1ccccc1`: the “% Inhibition” value is listed as 44% and the Z score was -5.72.
Taken in the same sequence, the figures for `Cc1ccc(C(=O)NC2CCN(CN3C[C@@H](c4ccccn4)CC3=O)CC2)o1` were -7% and 0.72.
Taken in the same sequence, the figures for `Cc1cnn(C2CN(CC(=O)N3CCN(c4ncccn4)CC3)C2)c1` were 2% and -0.35.
Consider `C[C@@H](c1ccccc1)N(CC(=O)N1CCN(c2ccc(-c3ccc(Cl)cc3Cl)nn2)CC1)C(=O)c1cccc(F)c1`, for which the “% Inhibition” value came to 3% and the Z score is on record as -0.28.
Taken in the same sequence, the figures for `Cc1ccccc1CC(=O)Nc1ccc2oc(C3CC3)nc2c1` were -2% and 0.17.
Taken in the same sequence, the figures for `CC(=O)Nc1ccc(CNC(C)(C)c2ncc(C)s2)cc1` were -10% and 1.37.
Taken in the same sequence, the figures for `C#CC[C@H](C)OC(=O)c1cnn(CC)c1` were -16% and 1.72.
In the case of `CC1CCN(c2cc(-c3ccco3)c3c(c2C#N)CC(C)(C)OC3)CC1`, the “% Inhibition” value turned out to be 5% and the Z score is given as -0.81.
In the case of `CC1CCN(CC(=O)Nc2sc3c(c2C#N)CCC3)CC1`, the “% Inhibition” value is given as -3% and the Z score worked out at 0.56.
Taken in the same sequence, the figures for `CC1(C)CCCN(C(=O)NCCCN2CCOCC2)CC1` were -9% and 1.17.
Taken in the same sequence, the figures for `COc1ccccc1NC(=O)N1CCC[C@]2(C3=CCOCC3)COCC[C@@H]12` were 2% and -0.3.
On the same counts, the results for `Cc1[nH]ccc1C(=O)N1CC[C@@]2(CCCN(CC3CCC3)C2=O)C1` are -14% and 2.68.
Regarding `O=C(Cn1cnc(C2CC2)cc1=O)N1CC[C@@H](c2ccccc2Cl)S(=O)(=O)CC1`, the “% Inhibition” value is -8% and the Z score was found to be 1.32.
`NC(=O)CN1CCOc2ccc(F)cc2C1`: the “% Inhibition” value turned out to be 8% and the Z score is on record as -1.52.
Taken in the same sequence, the figures for `CN1C(=O)c2cc3ccccc3n2C[C@@]1(C)C(=O)NCC(=O)N1CCCCC1` were -11% and 1.13.
For the compound `COC(=O)c1cc(OCC(=O)Nc2ccc(C)c(F)c2)c2cc(C)ccc2n1`, the “% Inhibition” value is recorded as -6% and the Z score turned out to be 0.97.
With `O=C1[C@H]2CN(Cc3ccc(Cl)cc3)C[C@H]2C(=O)N1Cc1ccc2c(c1)OCO2`, the “% Inhibition” value is -12% and the Z score was found to be 1.52.
